Not every entry of the source has a single result; some have several. This is not the full list of results. An entry can have further records. Values that stand side by side are repeated measurements in other runs, samples, wells, individuals or studies. Brackets with × say how often a value occurs here.
System: SW 1271 complex spheroids, viability
Assay: Anticancer human tumor SW 1271 cell line growth inhibition [LSD1];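 also: spheroids exposed to agents for 7 days before luminescence read; 100% = DMSO vehicle control viability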
Settings: stronger effect = lower value
Excerpt: Multicellular complex tumor spheroid response to LSD1 Inhibitor Iadademstat in combination with a variety of drugs and investigational agents in selected tumor cell lines
The current study was undertaken to assess response to LSD1 inhibitors in combination with standard-of-care drugs and investigational agents in solid tumor complex spheroid models as well as in the K-562 leukemia. Complex spheroids include a stromal component modeled by human endothelial cells (HUVEC) and fibroblasts modeled by human mesenchymal stem cells (MSCs). The concentration ranges selected for each drug and investigational agent were based upon clinically achievable concentrations if the clinical Cmax of the agent was known.
Compounds. The drugs and investigational agents used in this study are listed on Table 1. All of the agents used, including staurosporine (NSC755774) and gemcitabine (NSC613327), were obtained from the Developmental Therapeutics Program, NCI. FDA-approved anticancer drugs are available from the NCI at http://dtp.nci.nih.gov/branches/dscb/oncology_drugset_explanation.html. Drugs and investigational agents were >95% pure by proton nuclear magnetic resonance (NMR) and liquid chromatography/mass spectrometry (LC/MS). Stock solutions were prepared at 400x in DMSO, stored at -70 degrees C, and diluted in fresh medium prior to their use. The final concentration of DMSO in cell culture wells never exceeded 0.25% (v/v). The FDA-approved anticancer drug set is available from the Developmental Therapeutics Program at https://dtp.cancer.gov/organization/dscb/obtaining/available_plates.htm. All drugs and investigational agents were tested over a range starting from a high concentration at or near the clinical Cmax and decreasing in half-log increments. If the clinical Cmax for an agent had not been determined, the highest concentration tested was 10 microM.
Cell Lines. The patient-derived cancer cell (PDC) lines: 292921-168-R-J2-PDC, K24384-001-R-PDC, and 521955-158-R2-J5-PDC pancreatic carcinomas, 556581-035-R-J1 ovarian carcinoma, 324938-238-R-J1-PDC, 855422-203-R-J1-PDC and 883617-216-R-J1-PDC urothelial bladder carcinomas, 743489-274-T-PDC renal cell carcinoma, 138582-R-J1 Merkel cell tumor, K60290-347-R-J1 and K57222-313-R-J1-PDC glioblastomas, 653999-131-R-J2-PDC, LG0703-F948-PDC, and 349418-098-R-PDC non-small cell lung carcinomas, 885512-296-R-J2-PDC, 171881-019-R-J1-PDC breast carcinomas and 186277-243-T-J2-PDC and 233499-124-R-J2-PDC colon carcinomas were obtained from the NCI Patient-Derived Models Repository (PDMR, https://pdmr.cancer.gov). The established cell lines NCI/ADR-RES (RRID:CVCL_14520 and OVCAR-5 (RRID:CVCL_1628) ovarian carcinomas, 786-O (RRID:CVCL_1051) and A498 (RRID:CVCL_A498) renal cell carcinoma, NCI-H211 (ATCC, cat. CRL-5824; RRID:CVCL_1529), NCI-H196 (ATCC, cat. CRL-5823, RRID:CVCL_1509), SW 1271 (ATCC, cat. CRL-2177, RRID:CVCL_1716) and NCI-H1876 (ATCC, cat. CRL-5902, RRID:CVCL_1503) small cell lung carcinomas, MDA-MB-231 (RRID:CVCL_0062) and MDA-MB-468 (RRID:CVCL_0419)breast carcinomas (10-12). Pooled donor human umbilical vein endothelial cells (HUVEC, Lonza, cat. CC-2519) and human mesenchymal stem cells (hMSC, Lonza, cat. PT-2501) were purchased from Lonza (Walkersville, MD).
Cell Culture. All cells were maintained in an incubator at 37 degrees C and 5% CO2 with 95% humidity. The PDC lines were cultured according to standard operating procedures established by the NCI PDMR (https://pdmr.cancer.gov). Briefly all PDCs were thawed and cultured in Matrigel-coated flasks prepared with a working solution of 1X Ham's F-12 nutrient mix, without supplementation (Invitrogen, Waltham, MA, cat. 11765054), 100 U/mL penicillin-streptomycin (Invitrogen, cat. 15140122), and 2.5% Matrigel (Corning Inc., Corning, NY, cat. 354248) for the first three passages. […]

## O=C(C=Cc1cccc(S(=O)(=O)Nc2ccccc2)c1)NO
Compound alone 3 µM
  viability, T/C: 115% and 0.28%

## NC1CC1c1ccc(-c2cccc(O)c2)cc1 (stereo not drawn)
Compound alone 0.316 µM
  viability, T/C: 82.1, 83.4, 83.1, 89.5, 87.7, 83, 95.8, 77.3 (3×), 82.5, 79.5, 77.5, 83.7, 80.8, 90.5, 62.5, 86.6, 75.6, 71.2, 67.1, 78.8, 79.6, 81.5, 73.3%
Compound alone 1 µM
  viability, T/C: 86.6 (2×), 74.3, 83.7, 75.8, 73.6, 79, 86.2, 70.8, 72.6, 75.4, 81.4, 79.6, 73.4, 74.6, 78.8, 73, 88.5, 61, 92.4, 76.3, 88.4, 89.4, 68.4%
Compound alone 3.16 µM
  viability, T/C: 76.7, 91.9, 72.6, 76.6, 67.4, 74, 82.2, 80.9, 77.7, 80.5, 62.7, 79.9, 80.7, 72.5, 73.6, 75.7, 68.3, 75.6, 81.5, 69.2, 94.3, 82.3, 74.2, 82, 70.6%

## NC1CCC(NC2CC2c2ccccc2)CC1 (stereo not drawn)
Compound alone 0.1 µM
  viability, T/C: 90.3, 86.8, 98, 93.3, 96.6, 112, 99.4, 76.7, 75.9, 79.9, 115, 72.2, 83.5 (2×), 107, 89.3, 83.1, 77.8, 96.3, 93, 108, 101 (2×), 91, 79.7%
Compound alone 1 µM
  viability, T/C: 78.9, 93.4, 88, 87 (2×), 93.5 (2×), 106, 105, 86, 79.8, 72.9, 94.9, 87.1, 104, 93.9, 92.6, 82.3, 86.3, 91.3, 88.7, 84.6, 100, 83.4, 71.5%
Compound alone 3.16 µM
  viability, T/C: 77.3, 84.9, 92, 75.9, 91.9, 98.5, 98.9, 83.7, 87.3, 104, 97, 81.5, 99.7, 109, 95.5, 87.9, 101, 88.5, 90.8, 84, 90.1, 77.2, 91.3, 86.5, 77.9%
Compound alone 10 µM
  viability, T/C: 78, 83.1, 101 (2×), 70.2, 85.1, 91.5, 88.9, 99.4, 81.4, 103 (2×), 102, 94.9, 95.9, 83.4, 79.6, 81.1, 92.9, 84.3, 78.1, 81.3, 71.3%

Source: PubChem BioAssay AID1918941 (Molecular Pharmacology Branch, DTP, NCI, 2023)
